Some of the results follow.
What was measured:
Assay in all cases: glycan array binding signal (z-score within array); higher = stronger binding
Conditions in all cases: glycan notation: IUPAC condensed, linker removed
[1] = biological target: Kdn(a2-3)Gal(b1-4)Glc
Summary of the method: (§1)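 Columns mapping to the same glycan were averaged after glycan names were converted to IUPAC-condensed notation. The data come from 3228 arrays in the Consortium for Functional Glycomics database, limited to those with an available protein sequence. Binding is reported as a within-array Z-score averaged across arrays of one protein sequence and across linkers.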

[2] = biological target: Kdn(a2-3)Gal(b1-4)GlcNAc
Summary of the method: as §1

[3] = biological target: Kdn(a2-3)Gal(b1-4)[Fuc(a1-3)]GlcNAc
Summary of the method: as §1

[4] = biological target: Kdn(a2-6)Gal(b1-4)GlcNAc
Summary of the method: as §1

[5] = biological target: Man(a1-2)Man(a1-2)Man(a1-3)Man
Summary of the method: as §1

[6] = biological target: Man(a1-2)Man(a1-2)Man(a1-6)[Man(a1-3)]Man
Summary of the method: as §1

[7] = biological target: Man(a1-2)Man(a1-3)Man
Summary of the method: as §1

[8] = biological target: Man(a1-2)Man(a1-3)[Man(a1-2)Man(a1-6)]Man
Summary of the method: as §1

[9] = biological target: Man(a1-2)Man(a1-3)[Man(a1-2)Man(a1-6)]Man(a1-6)[Man(a1-2)Man(a1-2)Man(a1-3)]Man
Summary of the method: as §1

[10] = biological target: Man(a1-2)Man(a1-3)[Man(a1-2)Man(a1-6)]Man(a1-6)[Man(a1-2)Man(a1-2)Man(a1-3)]Man(b1-4)GlcNAc(b1-4)GlcNAc
Summary of the method: as §1

[11] = biological target: Man(a1-2)Man(a1-3)[Man(a1-6)]Man(a1-6)[Man(a1-2)Man(a1-3)]Man(b1-4)GlcNAc(b1-4)GlcNAc
Summary of the method: as §1

[12] = biological target: Man(a1-2)Man(a1-6)[Man(a1-3)]Man(a1-6)[Man(a1-2)Man(a1-2)Man(a1-3)]Man
Summary of the method: as §1

[13] = biological target: Man(a1-2)Man(a1-6)[Man(a1-3)]Man(a1-6)[Man(a1-2)Man(a1-2)Man(a1-3)]Man(b1-4)GlcNAc(b1-4)GlcNAc
Summary of the method: as §1

[14] = biological target: Man(a1-3)[Man(a1-6)]Man
Summary of the method: as §1

[15] = biological target: Man(a1-3)[Man(a1-6)]Man(a1-6)[Man(a1-2)Man(a1-3)]Man(b1-4)GlcNAc(b1-4)GlcNAc
Summary of the method: as §1

[16] = biological target: Man(a1-3)[Man(a1-6)]Man(a1-6)[Man(a1-3)]Man
Summary of the method: as §1

[17] = biological target: Man(a1-3)[Man(a1-6)]Man(a1-6)[Man(a1-3)]Man(b1-4)GlcNAc(b1-4)GlcNAc
Summary of the method: as §1

[18] = biological target: Man(a1-3)[Man(a1-6)]Man(b1-4)GlcNAc(b1-4)GlcNAc
Summary of the method: as §1

[19] = biological target: Man(a1-3)[Man(a1-6)]Man(b1-4)GlcNAc(b1-4)[Fuc(a1-6)]GlcNAc
Summary of the method: as §1

[20] = biological target: Man(a1-6)Man
Summary of the method: as §1

[21] = biological target: Man(b1-4)GlcNAc
Summary of the method: as §1

[22] = biological target: MurNAc(b1-4)GlcNAc
Summary of the method: as §1

[23] = biological target: Neu5Ac(a2-3)Gal
Summary of the method: as §1

[24] = biological target: Neu5Ac(a2-3)Gal(b1-3)GalNAc
Summary of the method: as §1

[25] = biological target: Neu5Ac(a2-3)Gal(b1-3)GalNAc(b1-3)Gal(a1-4)Gal(b1-4)Glc
Summary of the method: as §1

[26] = biological target: Neu5Ac(a2-3)Gal(b1-3)GalNAc(b1-4)[Neu5Ac(a2-3)]Gal(b1-4)Glc
Summary of the method: as §1

[27] = biological target: Neu5Ac(a2-3)Gal(b1-3)GalNAc(b1-4)[Neu5Ac(a2-8)Neu5Ac(a2-3)]Gal(b1-4)Glc
Summary of the method: as §1

[28] = biological target: Neu5Ac(a2-3)Gal(b1-3)GalNAc6S
Summary of the method: as §1

[29] = biological target: Neu5Ac(a2-3)Gal(b1-3)GlcNAc
Summary of the method: as §1

[30] = biological target: Neu5Ac(a2-3)Gal(b1-3)GlcNAc(b1-2)Man
Summary of the method: as §1

[31] = biological target: Neu5Ac(a2-3)Gal(b1-3)GlcNAc(b1-2)Man(a1-3)[GlcNAc(b1-4)][Neu5Ac(a2-3)Gal(b1-3)GlcNAc(b1-2)Man(a1-6)]Man(b1-4)GlcNAc(b1-4)GlcNAc
Summary of the method: as §1

[32] = biological target: Neu5Ac(a2-3)Gal(b1-3)GlcNAc(b1-2)Man(a1-3)[Neu5Ac(a2-3)Gal(b1-3)GlcNAc(b1-2)Man(a1-6)]Man(b1-4)GlcNAc(b1-4)GlcNAc
Summary of the method: as §1

[33] = biological target: Neu5Ac(a2-3)Gal(b1-3)GlcNAc(b1-3)Gal(b1-3)GlcNAc
Summary of the method: as §1

[34] = biological target: Neu5Ac(a2-3)Gal(b1-3)GlcNAc(b1-3)Gal(b1-4)GlcNAc
Summary of the method: as §1

[35] = biological target: Neu5Ac(a2-3)Gal(b1-3)GlcNAc(b1-3)GalNAc
Summary of the method: as §1

[36] = biological target: Neu5Ac(a2-3)Gal(b1-3)GlcNAc(b1-4)Gal(b1-4)Glc
Summary of the method: as §1

[37] = biological target: Neu5Ac(a2-3)Gal(b1-3)GlcNAc(b1-6)GalNAc
Summary of the method: as §1

[38] = biological target: Neu5Ac(a2-3)Gal(b1-3)GlcNAc6S
Summary of the method: as §1

B1: Na-CTL-1 (Necator americanus) (protein)
chain: MQRSFLLLLVVLAGAWAVNTTIPLKLMGGFTPMKYQCVGRVSDIWADVLFLIESSDMITKSGFRQVIAFITATTKKMTIGQDEKQTRVGFITYGEEAKLIYDLDHWRSTEKLSDLVQKIPYVKSSGTNIAAAIALANKVFNSPTHRPNVPKVMVIVANGLKKGSQNPIPVATAFKDFGGIIITIEYTQYDNIQVPILKKIASEGYNIRSNDEDFSVRTLTNMLLQANCFCPDHYVPFRVNNPEFGCFVTAKIPSMWRDAAEMCRAVEEGKLVKVENEEKAAFIMKLVGPKKEAWIGLRYYGNKFQWTDGTKLNADDFNLWPEDIKELNGPHCVSMYQDQKDKKYYWRAGKCLEDMRYVCEVQPCSASNYCSEPVFMYRQKHRALLPAPPPPPN
glycan array binding signal (z-score) [1]: -0.356
glycan array binding signal (z-score) [2]: -0.056
glycan array binding signal (z-score) [3]: -0.546
glycan array binding signal (z-score) [4]: -0.482
glycan array binding signal (z-score) [5]: 0.039
glycan array binding signal (z-score) [6]: -0.514
glycan array binding signal (z-score) [7]: -0.24
glycan array binding signal (z-score) [8]: -0.291
glycan array binding signal (z-score) [9]: 0.15
glycan array binding signal (z-score) [10]: -0.121
glycan array binding signal (z-score) [11]: 0.06
glycan array binding signal (z-score) [12]: -0.056
glycan array binding signal (z-score) [13]: -0.4
glycan array binding signal (z-score) [14]: 0.016
glycan array binding signal (z-score) [15]: -0.365
glycan array binding signal (z-score) [16]: -0.192
glycan array binding signal (z-score) [17]: -0.22
glycan array binding signal (z-score) [18]: -0.552
glycan array binding signal (z-score) [19]: -0.097
glycan array binding signal (z-score) [20]: -0.528
glycan array binding signal (z-score) [21]: 0.099
glycan array binding signal (z-score) [22]: -0.718
glycan array binding signal (z-score) [23]: -0.133
glycan array binding signal (z-score) [24]: 1.04
glycan array binding signal (z-score) [25]: -0.094
glycan array binding signal (z-score) [26]: 0.065
glycan array binding signal (z-score) [27]: -0.304
glycan array binding signal (z-score) [28]: 0.024
glycan array binding signal (z-score) [29]: -0.301
glycan array binding signal (z-score) [30]: 0.012
glycan array binding signal (z-score) [31]: -0.172
glycan array binding signal (z-score) [32]: -0.05
glycan array binding signal (z-score) [33]: -0.345
glycan array binding signal (z-score) [34]: 0.041
glycan array binding signal (z-score) [35]: -0.655
glycan array binding signal (z-score) [36]: -0.381
glycan array binding signal (z-score) [37]: 0.262
glycan array binding signal (z-score) [38]: 0.215

Source: the supplement of paper PMC8728848
